Results: PubChem BioAssay AID1918995 (Molecular Pharmacology Branch, DTP, NCI, 2023)
A number of entries come with more than one value. The other results are left out here. An entry can have further records. The values listed for one entry are repeated measurements (runs, samples, wells, individuals or studies). Additions like (4×) count equal records among those shown. Values belong to the compound of their own block, whether it stands above or below them.

Tested on: 324938-238-R-J1-PDC complex spheroid growth, % test/control
Test: Anticancer human tumor 324938-238-R-J1-PDC patient-derived bladder carcinoma cell line growth inhibition [AhR]
Conditions: for IC50: compound alone; for viability, T/C: stronger effect = lower value
Source text: Multicellular complex tumor spheroid response to aryl hydrocarbon receptor antagonists in combination with a variety of drugs and investigational agents in selected tumor cell lines
The current study was undertaken to assess response to aryl hydrocarbon receptor antagonists in combination with standard-of-care drugs and investigational agents in solid tumor complex spheroid models. Complex spheroids include a stromal component modeled by human endothelial cells (HUVEC) and fibroblasts modeled by human mesenchymal stem cells (MSCs). The concentration ranges selected for each drug and investigational agent were based upon clinically achievable concentrations if the clinical Cmax of the agent was known.
Compounds. The drugs and investigational agents: BAY 2416964 (NSC825713), GNF351 (NSC835774), CH-223191 (NSC835775), CPI-455 (NSC825282), aza-TdCyd (NSC777586), decitabine (NSC127716), belinostat (NSC758774), entinostat (NSC756642), pevonedistat (NSC761192), tazemetostat (NSC777109), talazoparib (NSC765396), olaparib (NSC753686), selinexor (NSC780203), nedisertib (M3814, NSC802822), bortezomib (NSC756655), venetoclax (NSC766270), doxorubicin (NSC123127), elimusertib (BAY189344, NSC800525), ceralasertib (AZD6738, NSC777638), TAK-243 (NSC785004), alisertib (NSC759677), etoposide (NSC141540), topotecan (NSC609699), eribulin (NSC707389), gemcitabine (NSC613327), carboplatin (NSC241240), cisplatin (NSC119875), and SN-38 (NSC673596) were obtained from the National Cancer Institute (NCI) Developmental Therapeutics Program Chemical Repository (32). The FDA-approved anticancer drug set is available from the Developmental Therapeutics Program at https://dtp.cancer.gov/organization/dscb/obtaining/available plates.htm. […] The stock solutions were prepared in dimethyl sulfoxide (DMSO, Sigma-Aldrich, St. Louis, MO, cat. D2650), except for the platinum compounds which were prepared in saline (Quality Biological, Gaithersburg, MD, cat. 114-055-101), at 800-fold the tested concentration and stored at -70 degrees C prior to their use. All drugs and investigational agents were tested over a range starting from a high concentration at or near the clinical Cmax and decreasing in half-log increments. If the clinical Cmax for an agent had not been determined, the highest concentration tested was 10 microM (Table 1).
Cell Culture. All cells were maintained in an incubator at 37 degrees C and 5% CO2 with 95% humidity. The PDC lines were cultured according to standard operating procedures established by the NCI PDMR (https://pdmr.cancer.gov). Briefly, all PDCs were thawed and cultured in Matrigel-coated flasks prepared with a working solution of 1X Ham's F-12 nutrient mix, without supplementation (Invitrogen, Waltham, MA, cat. 11765054), 100 U/mL penicillin-streptomycin (Invitrogen, cat. 15140122), and 2.5% Matrigel (Corning Inc., Corning, NY, cat. 354248) for the first three passages. All PDCs were cultured in complete DMEM/F-12 media containing advanced DMEM/F-12 (Invitrogen, cat. 12634028), 4.9% defined fetal bovine serum, heat inactivated (HyClone Laboratories Inc., Logan, UT, cat. SH30070.03HI), 389 ng/mL hydrocortisone (Sigma-Aldrich, cat. H4001), 9.7 ng/mL human EGF recombinant protein (Invitrogen, cat. PHG0313), 23.4 microg/mL adenine (Sigma-Aldrich, cat. A2786), 97.3 U/mL penicillin-streptomycin (Invitrogen, cat. 15140122), 1.9 mM L-glutamine (Invitrogen, cat. 25030081), and 9.7 microM Y-27632 dihydrochloride (Tocris Bioscience, Bristol, United Kingdom, cat. 1254). The PDCs were cultured in complete DMEM/F12 media without 10 microM Y-27632 dihydrochloride for at least two passages prior to the screen. The established cell lines NCI-H1341 and […] were cultured in DMEM/F-12, HEPES (Invitrogen, cat. 11330032), 5% defined fetal bovine serum (HyClone Laboratories Inc., cat. SH30070.03), ITS premix universal culture supplement [insulin (5 microg/mL), transferrin (5 microg/mL), and selenious acid (5 ng/mL)] […]
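Note: spheroids exposed to agents for seven days before viability read.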

IC50: 83.9 nM, > 10 µM, 142 nM
SMILES: COc1cc(Nc2ncc3c(n2)-c2ccc(Cl)cc2C(c2c(F)cccc2OC)=NC3)ccc1C(=O)O

SMILES: O=C(C=Cn1cnc(-c2cc(C(F)(F)F)cc(C(F)(F)F)c2)n1)NNc1cnccn1
viability, T/C (compound alone 3 µM): 9.1%, 34.5%, 8.07%

IC50: < 31.6 nM, > 10 µM, 36.1 nM
SMILES: Nc1ccn(C2OC(CO)C(O)C2(F)F)c(=O)n1 (stereo not given)

SMILES: CC(CO)NC(=O)c1cc(-c2ccc(Cl)cc2)nn(-c2cnn(C)c2)c1=O (stereo not given)
viability, T/C (compound alone 0.1 µM): 104 (3×), 93.6, 102, 98.9, 96.8, 92.9, 113 (2×), 89.5, 98.8, 86.5, 91.1, 84.3, 97.4, 96.3, 94.8, 108, 91.6%
viability, T/C (compound alone 3.16 µM): 74.8, 69.1, 73.3, 63.5, 69, 85.6, 72.4, 75.7, 58.3, 78.5, 73.6, 67.5, 65.7, 68.9, 64.3, 73.4, 76.5, 75.1, 75.4%

SMILES: O=C(C=Cc1cccc(S(=O)(=O)Nc2ccccc2)c1)NO
viability, T/C (compound alone 10 µM): 1.47%, 3.01%, 31.2%

IC50: < 0.949 nM, > 300 nM, 3.26 nM
SMILES: CCc1c2c(nc3ccc(O)cc13)-c1cc3c(c(=O)n1C2)COC(=O)[C@]3(O)CC

IC50: 344 nM, > 10 µM, 399 nM
SMILES: COc1cc(C2c3cc4c(cc3C(OC3OC5COC(C)OC5C(O)C3O)C3COC(=O)C23)OCO4)cc(OC)c1O (stereo not given)

SMILES: Cc1cncc(-c2nc(NCCc3c[nH]c4ccccc34)c3ncn(C(C)C)c3n2)c1
viability, T/C (compound alone 0.1 µM): 126, 105, 104 (2×), 112, 87.8, 84.7, 92.4, 103, 92.8, 111, 137, 114, 94.5, 113, 97.8, 118, 79.1, 91.5, 95.6%
viability, T/C (compound alone 0.316 µM): 97.2, 78.1, 93, 86.6, 76.1, 76.2, 96 (2×), 124, 83.6, 130, 108 (2×), 101, 107, 85.2, 80.7, 125, 88.7, 118%
viability, T/C (compound alone 1 µM): 99.1, 94.5, 87.6, 108 (2×), 98.7, 94.1, 106, 96.5, 94.4, 109, 113, 86.1, 84.9, 118 (2×), 99.8, 101, 91.1, 81.5%
viability, T/C (compound alone 3.16 µM): 77.9, 77, 105 (2×), 70.4, 106 (2×), 67.4, 87.6, 84.2, 90, 75.1, 97.2, 68.7, 91.9, 116, 113, 84, 83, 85.8%
viability, T/C (compound alone 10 µM): 1.93, 4.73, 5.11, 7.15, 41.5, 7.09, 4.86, 2.94, 4.38, 5.78, 17.5, 15.6, 16.9, 7.93, 7.43, 21, 11, 7.33, 6.17, 8.51%

SMILES: Nc1ccccc1NC(=O)c1ccc(CNC(=O)OCc2cccnc2)cc1
viability, T/C (compound alone 10 µM): 21.3%, 4.9%, 34.6%

IC50: < 31.6 nM (2×) and 344 nM
SMILES: COc1cccc2c1C(=O)c1c(O)c3c(c(O)c1C2=O)CC(O)(C(=O)CO)CC3OC1CC(N)C(O)C(C)O1 (stereo not given)

SMILES: Cc1ccccc1N=Nc1ccc(NC(=O)c2ccnn2C)c(C)c1
viability, T/C (compound alone 0.1 µM): 87.3, 83.6, 83.4, 101 (2×), 95.7, 96.4, 111, 97.1, 108, 91.5, 95.6, 90.3, 93.7, 102, 96.9, 104, 106, 99.4, 98.3%
viability, T/C (compound alone 0.316 µM): 88.8, 86.5, 83, 102, 83.7, 70.3, 66, 92.8, 88.4, 82 (2×), 93.9, 92.3, 82.4, 105, 89.2, 93.6, 86.4, 81.6, 99.6%
viability, T/C (compound alone 1 µM): 92.9, 94.2, 81.5, 91.7, 78.4, 81.4, 89.1, 94.5, 88.7, 88.6, 107, 83, 88.1 (2×), 92.4, 78.6, 94.7, 81, 81.2, 95.9%
viability, T/C (compound alone 3.16 µM): 76.2, 77.2, 65.2, 95.9, 69.6, 77.5, 85.4, 83.4, 85, 79.2, 84.8, 75.4, 79, 79.4, 70.7, 82.8, 74.8, 65.6, 74.7, 86.9%

IC50: 73 nM, > 1 µM, 288 nM
SMILES: CC1COCCN1c1cc(-c2ccnn2C)c2ccnc(-c3ccn[nH]3)c2n1 (stereo not given)
